# From the supplement of paper PMC11348887
# Several values for one entry are separate records, joined by “and”; a condition that tells them apart may be missing. Equal values may be shown once. Where a name gives a salt, the structure may show the parent alone. This is one part of the list. Rule as the data show it: active = -2 or less and inactive = the rest. Single values are uncertain, as repeats are few or missing.
# Test system: hPSC-derived cortical neurons (WA09)
# Experiment: nuclei number (viability) z-score; higher = more surviving cells
# Conditions: 5 µM; treatment: days 7-14 after plating, readout day 21
# 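Also: nuclei counted from DAPI counterstain by automated high-content image analysis, four fields per well at ×20 in 384-well plates, with sequential b-score then z-score normalization.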
row,SMILES,nuclei number (z-score)
1,CCC(=O)O[C@]1(C(=O)CCl)[C@@H](C)C[C@H]2[C@@H]3CCC4=CC(=O)C=C[C@]4(C)[C@@]3(F)[C@@H](O)C[C@@]21C [Clobetasol propionate],inactive: 1.17
2,O=S(=O)(O)c1cc(O)ccc1O [Ethamsylate],inactive: 0.139
3,COc1ccc(F)c(F)c1C(=O)c1cnc(NC2CCN(S(C)(=O)=O)CC2)nc1N,active: -2.45
4,CCCCC(F)(F)[C@@]1(O)CC[C@H]2[C@@H](CC(=O)[C@@H]2CCCCCCC(=O)O)O1 [Lubiprostone],inactive: -0.568
5,CCOC(=O)[C@H](CCc1ccccc1)N[C@H]1CS[C@H](c2cccs2)CN(CC(=O)O)C1=O [Temocapril HCl],inactive: -0.287
6,O=C1OCCN1/N=C/c1ccc([N+](=O)[O-])o1 [Furazolidone],inactive: -0.172
7,COc1ccc(C2CNC(=O)C2)cc1OC1CCCC1 (centres undefined) [Rolipram],inactive: -0.087
8,O=c1c(O)c(-c2ccc(O)cc2O)oc2cc(O)cc(O)c12 [Morin Hydrate],inactive: -1.34
9,OC[C@H]1O[C@@H](Oc2cc(O)cc(/C=C/c3ccc(O)cc3)c2)[C@H](O)[C@@H](O)[C@@H]1O [Polydatin],inactive: 0.195
10,CC(=O)Nc1nc(C)c(-c2ccc(Cl)c(S(=O)(=O)NCCO)c2)s1,inactive: 0.0457
11,CCn1cc(-c2cccc(C(F)(F)F)c2)c2sc(C(=N)NC3CCS(=O)(=O)CC3)cc2c1=O,inactive: -0.0955
12,C[C@H]1C[C@@H]2[C@H]([C@@H](O)C[C@@]3(C)[C@H]2CC[C@]3(O)C(=O)CO)[C@@]2(C)C=CC(=O)C=C12 [Methylprednisolone],inactive: 0.00686
13,COc1cc([C@@H]2c3cc4c(cc3[C@@H](O[C@@H]3O[C@@H]5CO[C@@H](C)O[C@H]5[C@H](O)[C@H]3O)[C@H]3COC(=O)[C@H]23)OCO4)cc(OC)c1O [Etoposide],inactive: 0.442
14,COc1ccccc1OCC(O)CN1CCN(CC(=O)Nc2c(C)cccc2C)CC1 (centres undefined) [Ranolazine 2HCl],inactive: 2.91
15,COc1ccccc1OCC(O)CN1CCN(CC(=O)Nc2c(C)cccc2C)CC1 (centres undefined) [Ranolazine],inactive: 0.907
16,CN(C)C(=S)NN=C(c1ccccn1)c1ccccn1,active: -6.82
17,CNS(=O)(=O)C[C@H]1CC[C@H](N(C)c2[nH]cnc3nccc2-3)CC1 [Oclacitinib],inactive: 1.05
18,O=C1c2ccc(Nc3ccc(F)cc3F)cc2CCc2ccc(OC[C@H](O)CO)cc21 [Skepinone-L],inactive: 0.911
19,CCCNCC(O)COc1ccccc1C(=O)CCc1ccccc1 (centres undefined) [Propafenone HCl],inactive: -0.0866
20,NC(=O)C(c1ccccc1)(c1ccccc1)[C@@H]1CCN(CCc2ccc3c(c2)CCO3)C1 [Darifenacin HBr],inactive: -0.849
21,CCn1c(=O)c(-c2cc[nH]n2)cc2c(C)nc(N)nc21,inactive: 0.15
22,CN(C)c1nc(N(C)C)nc(N(C)C)n1 [Altretamine],inactive: 0.12

row,SMILES,nuclei number (z-score)
1,Nc1nc2n[nH]nc2c(=O)[nH]1 [Azaguanine-8],inactive: -0.852
2,C[C@H]1CNCCCN1S(=O)(=O)c1cccc2cncc(F)c12 [Ripasudil (K-115) hydrochloride dihydrate],inactive: 1.17
3,CC(=O)O[C@]1(C(C)=O)CC[C@H]2[C@@H]3C[C@H](C)C4=CC(=O)CC[C@]4(C)[C@H]3CC[C@@]21C [Medroxyprogesterone acetate],inactive: 0.226
4,O=C(O)c1cc(-c2ccccc2)nc2ccccc12 [Cinchophen],inactive: 0.364
5,COc1cc2c(Oc3ccc4[nH]c(C)cc4c3F)ncnc2cc1OCCCN1CCCC1 [Cediranib (AZD2171)],inactive: -0.897
6,CCOC(=O)Nc1cc(-c2ccc(C)c(NS(C)(=O)=O)c2)nn2c(C)nnc12 [Bromosporine],inactive: -0.921
7,Cc1cc2c(F)c(Oc3ncnn4cc(OC[C@@H](C)OC(=O)[C@H](C)N)c(C)c34)ccc2[nH]1,inactive: 0.669
8,C[C@@H]1CCN(C(=O)CC#N)C[C@@H]1N(C)c1ncnc2[nH]ccc12,inactive: 3.86 and inactive: 4.01
9,C#CC[C@H](c1nc2cc(Cl)ccc2c(=O)n1Nc1ccccc1)N(CCCN)C(=O)c1cccc(Cl)c1F,active: -5.5
10,O=S(=O)(O)NC1CCCCC1 [Cyclamic  acid],inactive: 0.721
11,O=C(NCCO)c1cccc(-c2cc(Nc3ccc(OC(F)(F)F)cc3)ncn2)c1,inactive: 0.263
12,COCC[n+]1c2c(n(Cc3cnccn3)c1C)C(=O)c1ccccc1C2=O [YM155 (Sepantronium Bromide)],inactive: -1.89
13,COc1ccc([C@]2(C#N)CC[C@@H](C(=O)O)CC2)cc1OC1CCCC1 [Cilomilast],inactive: -0.00162
14,CCCOc1ccn2c(C(C)=O)cc(-c3ccccc3S(C)(=O)=O)c2c1,inactive: 1.15
15,CC(/C=C1\SC(=S)N(CC(=O)O)C1=O)=C\c1ccccc1 [Epalrestat],inactive: -0.416
16,O=C1c2ccccc2C(=O)c2c1ccc(O)c2O [Alizarin],inactive: 0.67
17,Cc1nc(=O)c2cc(CN(C)c3ccc(C(=O)N[C@@H](CCC(=O)O)C(=O)O)s3)ccc2[nH]1 [Raltitrexed],inactive: -0.376
18,CN1CCN(CCCN2c3ccccc3Sc3ccc(Cl)cc32)CC1 [Prochlorperazine dimaleate salt],active: -7.38
19,CC(=O)[C@]1(O)Cc2c(O)c3c(c(O)c2[C@@H](O[C@H]2C[C@H](N)[C@H](O)[C@H](C)O2)C1)C(=O)c1ccccc1C3=O [Idarubicin HCl],active: -5.69
20,O=c1oc2ccccc2c(O)c1Cc1c(O)c2ccccc2oc1=O [Dicoumarol],inactive: 0.517
21,CS(=O)(=O)N1CCc2c(-c3cnc(N)nc3)nc(N3CCOCC3)nc21,inactive: 0.775
22,CC[C@H](C)C(=O)O[C@H]1CCC=C2C=C[C@H](C)[C@H](CC[C@@H]3C[C@@H](O)CC(=O)O3)[C@H]21 [Mevastatin],inactive: -0.306
